{"source": "paper PMC9911399", "about": "“Two distinct binding modes provide the RNA-binding protein RbFox with extraordinary sequence specificity”", "binders": {"B1": {"name": "CAAACCG (DNA:RNA)", "RNA": "GGGAGACCGGAAUUCAGAUUGUCCCAAACCGUUAAAUCCCGUCGUAGCCACCA", "DNA 1": "CAATCTGAATTCCGGTCTCCC", "DNA 2": "TGGTGGCTACGACGGGATT"}, "B2": {"name": "UUCAUGA (DNA:RNA)", "RNA": "B1 RNA with C25U, A26U, A27C, C29U, C30G, G31A", "DNA 1": "CAATCTGAATTCCGGTCTCCC", "DNA 2": "TGGTGGCTACGACGGGATT"}, "B3": {"name": "CUUGACU (DNA:RNA)", "RNA": "B1 RNA with A26U, A27U, A28G, C29A, G31U", "DNA 1": "CAATCTGAATTCCGGTCTCCC", "DNA 2": "TGGTGGCTACGACGGGATT"}, "B4": {"name": "AGAAGGG (DNA:RNA)", "RNA": "B1 RNA with C25A, A26G, C29G, C30G", "DNA 1": "CAATCTGAATTCCGGTCTCCC", "DNA 2": "TGGTGGCTACGACGGGATT"}, "B5": {"name": "AGCCGCG (DNA:RNA)", "RNA": "B1 RNA with C25A, A26G, A27C, A28C, C29G", "DNA 1": "CAATCTGAATTCCGGTCTCCC", "DNA 2": "TGGTGGCTACGACGGGATT"}, "B6": {"name": "CUAUAAA (DNA:RNA)", "RNA": "B1 RNA with A26U, A28U, C29A, C30A, G31A", "DNA 1": "CAATCTGAATTCCGGTCTCCC", "DNA 2": "TGGTGGCTACGACGGGATT"}, "B7": {"name": "AAUCGGG (DNA:RNA)", "RNA": "B1 RNA with C25A, A27U, A28C, C29G, C30G", "DNA 1": "CAATCTGAATTCCGGTCTCCC", "DNA 2": "TGGTGGCTACGACGGGATT"}, "B8": {"name": "GUCUAUU (DNA:RNA)", "RNA": "GGGAGACCGGAAUUCAGAUUGUCCGUCUAUUUUAAAUCCCGUCGUAGCCACCA", "DNA 1": "CAATCTGAATTCCGGTCTCCC", "DNA 2": "TGGTGGCTACGACGGGATT"}, "B9": {"name": "CCUUUUC (DNA:RNA)", "RNA": "B8 RNA with G25C, U26C, C27U, A29U, U31C", "DNA 1": "CAATCTGAATTCCGGTCTCCC", "DNA 2": "TGGTGGCTACGACGGGATT"}, "B10": {"name": "CGGGCAC (DNA:RNA)", "RNA": "B1 RNA with A26G, A27G, A28G, C30A, G31C", "DNA 1": "CAATCTGAATTCCGGTCTCCC", "DNA 2": "TGGTGGCTACGACGGGATT"}, "B11": {"name": "UUGACCC (DNA:RNA)", "RNA": "B1 RNA with C25U, A26U, A27G, G31C", "DNA 1": "CAATCTGAATTCCGGTCTCCC", "DNA 2": "TGGTGGCTACGACGGGATT"}, "B12": {"name": "GGAAUGC (DNA:RNA)", "RNA": "B1 RNA with C25G, A26G, C29U, C30G, G31C", "DNA 1": "CAATCTGAATTCCGGTCTCCC", "DNA 2": "TGGTGGCTACGACGGGATT"}, "B13": {"name": "GGAGUUG (DNA:RNA)", "RNA": "B1 RNA with C25G, A26G, A28G, C29U, C30U", "DNA 1": "CAATCTGAATTCCGGTCTCCC", "DNA 2": "TGGTGGCTACGACGGGATT"}, "B14": {"name": "GUAUAGG (DNA:RNA)", "RNA": "B8 RNA with C27A, U30G, U31G", "DNA 1": "CAATCTGAATTCCGGTCTCCC", "DNA 2": "TGGTGGCTACGACGGGATT"}, "B15": {"name": "CGGUCUG (DNA:RNA)", "RNA": "B1 RNA with A26G, A27G, A28U, C30U", "DNA 1": "CAATCTGAATTCCGGTCTCCC", "DNA 2": "TGGTGGCTACGACGGGATT"}, "B16": {"name": "AGUGUUU (DNA:RNA)", "RNA": "B8 RNA with G25A, U26G, C27U, U28G, A29U", "DNA 1": "CAATCTGAATTCCGGTCTCCC", "DNA 2": "TGGTGGCTACGACGGGATT"}, "B17": {"name": "CUACGCC (DNA:RNA)", "RNA": "B1 RNA with A26U, A28C, C29G, G31C", "DNA 1": "CAATCTGAATTCCGGTCTCCC", "DNA 2": "TGGTGGCTACGACGGGATT"}, "B18": {"name": "GCGUAGU (DNA:RNA)", "RNA": "B8 RNA with U26C, C27G, U30G", "DNA 1": "CAATCTGAATTCCGGTCTCCC", "DNA 2": "TGGTGGCTACGACGGGATT"}, "B19": {"name": "UGGUACG (DNA:RNA)", "RNA": "B1 RNA with C25U, A26G, A27G, A28U, C29A", "DNA 1": "CAATCTGAATTCCGGTCTCCC", "DNA 2": "TGGTGGCTACGACGGGATT"}, "B20": {"name": "CUGAGUA (DNA:RNA)", "RNA": "B1 RNA with A26U, A27G, C29G, C30U, G31A", "DNA 1": "CAATCTGAATTCCGGTCTCCC", "DNA 2": "TGGTGGCTACGACGGGATT"}, "B21": {"name": "GCUCUGC (DNA:RNA)", "RNA": "B8 RNA with U26C, C27U, U28C, A29U, U30G, U31C", "DNA 1": "CAATCTGAATTCCGGTCTCCC", "DNA 2": "TGGTGGCTACGACGGGATT"}, "B22": {"name": "CUCACGG (DNA:RNA)", "RNA": "B1 RNA with A26U, A27C, C30G", "DNA 1": "CAATCTGAATTCCGGTCTCCC", "DNA 2": "TGGTGGCTACGACGGGATT"}, "B23": {"name": "UGCCGCA (DNA:RNA)", "RNA": "B1 RNA with C25U, A26G, A27C, A28C, C29G, G31A", "DNA 1": "CAATCTGAATTCCGGTCTCCC", "DNA 2": "TGGTGGCTACGACGGGATT"}, "B24": {"name": "AAGAGCG (DNA:RNA)", "RNA": "B1 RNA with C25A, A27G, C29G", "DNA 1": "CAATCTGAATTCCGGTCTCCC", "DNA 2": "TGGTGGCTACGACGGGATT"}, "B25": {"name": "CGCGGAA (DNA:RNA)", "RNA": "B1 RNA with A26G, A27C, A28G, C29G, C30A, G31A", "DNA 1": "CAATCTGAATTCCGGTCTCCC", "DNA 2": "TGGTGGCTACGACGGGATT"}, "B26": {"name": "GGUAAGA (DNA:RNA)", "RNA": "B8 RNA with U26G, C27U, U28A, U30G, U31A", "DNA 1": "CAATCTGAATTCCGGTCTCCC", "DNA 2": "TGGTGGCTACGACGGGATT"}, "B27": {"name": "UGACGAA (DNA:RNA)", "RNA": "B1 RNA with C25U, A26G, A28C, C29G, C30A, G31A", "DNA 1": "CAATCTGAATTCCGGTCTCCC", "DNA 2": "TGGTGGCTACGACGGGATT"}, "B28": {"name": "GGAUCCG (DNA:RNA)", "RNA": "B1 RNA with C25G, A26G, A28U", "DNA 1": "CAATCTGAATTCCGGTCTCCC", "DNA 2": "TGGTGGCTACGACGGGATT"}, "B29": {"name": "AUGGAAU (DNA:RNA)", "RNA": "B8 RNA with G25A, C27G, U28G, U30A", "DNA 1": "CAATCTGAATTCCGGTCTCCC", "DNA 2": "TGGTGGCTACGACGGGATT"}, "B30": {"name": "GGCCGGC (DNA:RNA)", "RNA": "B8 RNA with U26G, U28C, A29G, U30G, U31C", "DNA 1": "CAATCTGAATTCCGGTCTCCC", "DNA 2": "TGGTGGCTACGACGGGATT"}, "B31": {"name": "AUACCGG (DNA:RNA)", "RNA": "B1 RNA with C25A, A26U, A28C, C30G", "DNA 1": "CAATCTGAATTCCGGTCTCCC", "DNA 2": "TGGTGGCTACGACGGGATT"}}, "note": "Positions count from the first letter of the chain named. Some of the results follow.", "data": [{"biological_target": "T1, RBFOX1 RRM (Homo sapiens, UniProt Q9NWB1 109-208)", "T1 sequence": "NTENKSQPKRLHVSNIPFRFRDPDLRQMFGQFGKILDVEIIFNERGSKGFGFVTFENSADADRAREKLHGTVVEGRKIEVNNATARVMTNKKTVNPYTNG", "assay": "EMSA; HiTS-Eq, 1 nM pool, 10 min; buffer printed only for the single-RNA assays: 10 mM Tris pH 7.5, 150 mM NaCl, 3.4 mM EDTA, 0.001% NP-40, 30 C", "conditions": "tags: His6 N-terminal (pET28a); label: 5' 32P", "method_in_brief": "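Purified wild-type or mutant RbFox RRM at increasing concentrations was equilibrated with 1 nM of 5′-radiolabelled RNA carrying 7 randomized nucleotides for 10 min in 50 µL. Unbound RNA was separated by 8% native PAGE and sequenced. Relative association constants came from read-count changes of each RNA species compared with the control reaction, normalised to the cognate motif.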", "values": [{"binder": "B1", "binding signal": "8.34e-05 KA relative to UGCAUGU"}, {"binder": "B2", "binding signal": "0.0117 KA relative to UGCAUGU"}, {"binder": "B3", "binding signal": "0.0078 KA relative to UGCAUGU"}, {"binder": "B4", "binding signal": "0.00618 KA relative to UGCAUGU"}, {"binder": "B5", "binding signal": "0.00876 KA relative to UGCAUGU"}, {"binder": "B6", "binding signal": "0.00444 KA relative to UGCAUGU"}, {"binder": "B7", "binding signal": "0.00411 KA relative to UGCAUGU"}, {"binder": "B8", "binding signal": "0.00628 KA relative to UGCAUGU"}, {"binder": "B9", "binding signal": "0.00728 KA relative to UGCAUGU"}, {"binder": "B10", "binding signal": "0.0231 KA relative to UGCAUGU"}, {"binder": "B11", "binding signal": "0.00634 KA relative to UGCAUGU"}, {"binder": "B12", "binding signal": "0.0946 KA relative to UGCAUGU"}, {"binder": "B13", "binding signal": "0.0272 KA relative to UGCAUGU"}, {"binder": "B14", "binding signal": "0.00932 KA relative to UGCAUGU"}, {"binder": "B15", "binding signal": "0.017 KA relative to UGCAUGU"}, {"binder": "B16", "binding signal": "0.0113 KA relative to UGCAUGU"}, {"binder": "B17", "binding signal": "0.00418 KA relative to UGCAUGU"}, {"binder": "B18", "binding signal": "0.00907 KA relative to UGCAUGU"}, {"binder": "B19", "binding signal": "0.0191 KA relative to UGCAUGU"}, {"binder": "B20", "binding signal": "0.0155 KA relative to UGCAUGU"}, {"binder": "B21", "binding signal": "0.0201 KA relative to UGCAUGU"}, {"binder": "B22", "binding signal": "0.0056 KA relative to UGCAUGU"}, {"binder": "B23", "binding signal": "0.0229 KA relative to UGCAUGU"}, {"binder": "B24", "binding signal": "0.00725 KA relative to UGCAUGU"}, {"binder": "B25", "binding signal": "0.0186 KA relative to UGCAUGU"}, {"binder": "B26", "binding signal": "0.00611 KA relative to UGCAUGU"}, {"binder": "B27", "binding signal": "0.02 KA relative to UGCAUGU"}, {"binder": "B28", "binding signal": "0.00934 KA relative to UGCAUGU"}, {"binder": "B29", "binding signal": "0.00904 KA relative to UGCAUGU"}, {"binder": "B30", "binding signal": "0.0191 KA relative to UGCAUGU"}, {"binder": "B31", "binding signal": "0.00158 KA relative to UGCAUGU"}]}]}
